In patent US20030103948A1 (NEORX, published 2003):

Assays:
[1] = target: T1, CD20 (human, UniProt P11836 1-297); test: competitive flow cytometry on Ramos cells; competitor fluorescein-labeled B9E9; reference B9E9 mAb
T1 construct: whole, on cells; also called CD20-positive Ramos cell line; Ramos cells
T1 sequence (looked up): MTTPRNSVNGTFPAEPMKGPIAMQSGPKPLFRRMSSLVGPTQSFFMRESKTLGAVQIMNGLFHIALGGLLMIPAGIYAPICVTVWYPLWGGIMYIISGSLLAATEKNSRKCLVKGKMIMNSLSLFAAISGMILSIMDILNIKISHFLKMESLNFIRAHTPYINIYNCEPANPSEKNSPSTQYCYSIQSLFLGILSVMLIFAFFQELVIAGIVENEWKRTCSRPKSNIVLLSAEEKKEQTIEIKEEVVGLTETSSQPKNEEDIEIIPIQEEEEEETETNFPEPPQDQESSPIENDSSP

[2] = target: T1, CD20; test: saturation binding of radiolabeled fusion protein to Ramos cells (10^7 cells), nonlinear regression

B1: B9E9 scFvSA (VH-VL 25-mer) (scFv)
scFv: MAQVQLVQSGAELVKPGASVKMSCKASGYTFTSYNMHWVKQTPGQGLEWIGAIYPGNGDTSYNQKFKGKATLTADKSSSTAYMQLSSLTSEDSAVYYCARAQLRPNYWYFDVWGAGTTVTVSKISGGGGSGGGGSGGGGSGGGGSGGGGSSDIVLSQSPAILSASPGEKVTMTCRASSSVSYMHWYQQKPGSSPKPWIYATSNLASGVPARFSGSGSGTSYSLTISRVEAEDAATYYCQQWISNPPTFGAGTKLELKSSGSGSA[not shown - about 150 residues]
notes: Tetramer of 4 identical subunits; monomer mass 43,401; also called B9E9 scFvSA 25-mer; B9E9 fusion protein
percent immunoreactivity ([IC50 scFvSA/IC50 mAb] x 100), molar basis [1]: ~185% | Ka [2]: 8e+07 M⁻¹ | Kd [2]: 12.4 nM
